In all, about 110,000 compounds were measured (“z-score”: median about -0.1, highest 2% from about 2 on). The list shows a part of the results. Residues, ends and D or L forms follow the SMILES beside them. *: point of attachment. Boc = CC(C)(C)OC(=O)*
What follows are molecules tested against Metabotropic glutamate receptor 8 (Rattus norvegicus) (UniProt P70579) (assay: rat mGluR8 modulators via GIRK flux, primary screen, cell-based, thallium flux, HTS (AID 488969)). Conditions: HEK293 rat mGluR8, GIRK (G protein-gated inwardly rectifying potassium channel) thallium flux, FluoZin2; at 10 µM; stronger effect = higher value; submaximal glutamate (EC20) added with thallium.
Chain of UniProt P70579 (P70579 whole entry, looked up): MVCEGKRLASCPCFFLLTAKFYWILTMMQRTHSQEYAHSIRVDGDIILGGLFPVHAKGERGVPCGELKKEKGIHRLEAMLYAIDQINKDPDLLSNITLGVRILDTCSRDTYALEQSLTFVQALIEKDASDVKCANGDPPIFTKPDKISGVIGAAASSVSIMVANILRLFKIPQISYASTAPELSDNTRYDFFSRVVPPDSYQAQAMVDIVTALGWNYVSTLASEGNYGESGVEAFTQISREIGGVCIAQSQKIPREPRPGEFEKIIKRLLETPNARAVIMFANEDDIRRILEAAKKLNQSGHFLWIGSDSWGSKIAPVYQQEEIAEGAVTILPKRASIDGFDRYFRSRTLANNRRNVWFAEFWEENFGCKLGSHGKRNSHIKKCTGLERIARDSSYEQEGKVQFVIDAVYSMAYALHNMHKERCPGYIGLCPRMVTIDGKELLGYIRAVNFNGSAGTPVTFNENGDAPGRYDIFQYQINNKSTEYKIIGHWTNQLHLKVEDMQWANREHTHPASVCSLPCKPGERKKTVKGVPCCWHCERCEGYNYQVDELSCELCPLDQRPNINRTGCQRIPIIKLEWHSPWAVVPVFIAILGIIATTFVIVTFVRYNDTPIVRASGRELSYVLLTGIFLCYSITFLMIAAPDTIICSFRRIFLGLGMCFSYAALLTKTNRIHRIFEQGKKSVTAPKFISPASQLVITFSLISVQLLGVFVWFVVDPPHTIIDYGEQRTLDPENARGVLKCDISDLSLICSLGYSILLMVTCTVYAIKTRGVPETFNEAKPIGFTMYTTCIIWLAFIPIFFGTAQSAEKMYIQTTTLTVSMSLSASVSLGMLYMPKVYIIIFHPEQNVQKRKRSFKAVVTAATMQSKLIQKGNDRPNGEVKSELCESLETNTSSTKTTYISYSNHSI

| Structure (SMILES) | z-score |
| --- | --- |
| COc1ccc(S(=O)(=O)N2CCCCC2)cc1NC(=S)Nc1cccc(Cl)c1C | -0.267 |
| Cn1ncc(Br)c1C(=O)Nc1ccc(F)cc1F | 0.238 |
| CCOc1ccc(Nc2nc(Cl)nc(NCCO)n2)cc1 | 0.122 |
| COc1cc(/C=N/NC(=O)c2ccc([N+](=O)[O-])cc2Cl)cc(Br)c1O | 0.0738 |
| CNc1nc(CCN2C(=O)c3ccccc3C2=O)cs1 | -0.0681 |
| Cc1ccc(F)c(NC(=O)C2CCCCC2C(=O)O)c1 (stereo not given) | 1.59 |
| CCC(=O)Nc1ccc(S(=O)(=O)Nc2cc(C)on2)cc1 | 0.42 |
| O=C(NCC1CCCO1)c1c(O)c2cccc3c2n(c1=O)CCC3 (stereo not given) | -0.736 |
| COc1ccc(N=C2SC(CC(=O)Nc3ccccc3F)C(=O)N2Cc2ccco2)cc1 (stereo not given) | -0.259 |
| Cc1cc(C(=O)OC(C)C(=O)Nc2nc(-c3ccccc3)cs2)c(C)o1 (stereo not given) | 0.00978 |
| Cc1sc2c(c1C)c(=O)n(-c1ccc(F)cc1)c(=O)n2CC(=O)NCc1ccco1 | -0.238 |
| COc1ccc(C(=O)N2CC(=O)N(CCc3ccccc3)C(=O)C2)cc1OC | -0.521 |
| Fc1ccc(CSc2nncn2NCc2ccccc2)cc1 | 0.189 |
| O=C(Cn1ccc([N+](=O)[O-])n1)NCc1ccco1 | -0.0548 |
| CC(=O)Nc1ccc(N=Cc2nc(-c3ccc(C)cc3)oc2O)cc1 | -0.604 |
| O=C(Nc1ccc2c(c1)nc1n2CCSC1)c1ccccc1 | -0.15 |
| COC(=O)C(C(=O)OC)C(C(=O)OC)C(C(=O)OC)C(=O)OC | 0.288 |
| Cn1nc(-c2ccc(Cl)cc2)nc2c(=O)n(C)c(=O)nc1-2 | -0.0841 |
| C(=C\c1nnc2c3ccccc3ncn12)/c1ccccc1 | -0.229 |
| O=C(NC1CCCc2ccccc21)c1ccc(Cl)nc1 (stereo not given) | -0.221 |
| O=C(C1=C(O)C(=O)N(CCN2CCOCC2)C1c1ccccn1)c1cccs1 (stereo not given) | 0.522 |
| O=C(Nc1cccnc1N1CCOCC1)c1ccco1 | -0.607 |

| Structure (SMILES) | z-score |
| --- | --- |
| Cc1ccc(NC(=O)c2ccc(OC(=O)COc3ccc(Cl)cc3C)cc2)cc1 | -0.069 |
| COc1ccc(CCNC(=O)c2nnn(-c3cc(C)cc(C)c3)c2N)cc1OC | -0.00195 |
| Cc1ccc(S(=O)(=O)N2CCN(C(=O)c3ccccc3)CC2)cc1 | 0.422 |
| COc1ccccc1Oc1ccc(N/C=C2/CCCC2=O)cc1 | -0.122 |
| Cc1c(NC2=NC(C)(C)Cc3ccccc32)c(=O)n(-c2ccccc2)n1C | -0.508 |
| Cc1ccc(NC(=O)CN2C(=O)S/C(=C\c3cccn3C)C2=O)cc1 | -0.234 |
| CCOc1ccc(-c2cn3ccccc3n2)cc1[N+](=O)[O-] | 0.461 |
| CCCCOc1ccc(-c2nnn(CC(=O)NCCc3c[nH]c4ccccc34)n2)cc1 | -0.168 |
| O=C1C2CC=C(Cl)CC2C(=O)N1CNc1ccccn1 (stereo not given) | -0.363 |
| Cc1ccccc1Nc1nc(N)nc(CSc2ccccc2)n1 | -0.372 |
| O=C1NC(=S)N/C1=C/c1ccc(Oc2ccc(C(F)(F)F)cc2[N+](=O)[O-])c(Cl)c1 | -0.0317 |
| CCN(CC)S(=O)(=O)c1csc(C(=O)NCc2ccccc2)c1 | 2.45 |
| CC(NC(=O)c1ccc(F)cc1)c1ccc2c(c1)CCCC2 (stereo not given) | -0.223 |
| CC(C)(C)c1[nH]nc2c1C(c1ccoc1)C(C#N)=C(N)O2 (stereo not given) | -0.293 |
| Cc1cc(C)c2oc(C(=O)Nc3ccc(S(=O)(=O)N4CCC(C)CC4)cc3)cc(=O)c2c1 | -0.0673 |
| Cc1cccc(NC(=O)c2ccc(COc3cccc4ccccc34)o2)n1 | -0.36 |
| CC(NC(=O)C(NC(=O)C1CCCN1C(=O)OC(C)(C)C)C(C)C)C(N)=O (stereo not drawn) (Boc-Pro-Val-Ala-NH2; configuration not given here) | -0.296 |
| CCc1ccc(C2=NNC(=Nc3cccc(S(=O)(=O)N(C)C)c3)SC2)cc1 | -0.497 |
| Cc1cccc(N=CC=C2OC(C)(C)C(C)(C)O2)c1 | 0.595 |
| COCCN1CCn2c(nc3cc(NC(=O)c4cccs4)ccc32)C1 | -0.0383 |
| Cc1c([N+](=O)[O-])c(C(=O)Nc2ccc3c(c2)OCCO3)nn1C | -0.0669 |
| Cn1cccc1Cc1nnc(SCC(=O)N2CCN(c3ccccc3)CC2)n1-c1ccc(F)cc1 | -0.223 |

| Structure (SMILES) | z-score |
| --- | --- |
| COc1ccc(-c2noc(-c3ccc(Cl)cc3[N+](=O)[O-])n2)cc1OC | -0.0457 |
| CCn1c(C2CC(=O)N(Cc3ccccc3)C2)nc2ccccc21 (stereo not given) | -0.349 |
| Nc1nc2ccc(N3CCOCC3)cc2s1 | 0.397 |
| Cc1ccc(NC(=O)N(Cc2nc3ccccc3c(=O)[nH]2)Cc2cccs2)cc1 | -0.425 |
| Cc1ccc(C)c(S(=O)(=O)N2CCN(CC(=O)N3CCc4ccccc4C3)CC2)c1 | -0.11 |
| COc1ccc(Cl)cc1N(CC(=O)NC(C(C)C)C(C)C)S(C)(=O)=O | -0.0442 |
| CC(=O)c1sc(NC(=O)c2c(F)cccc2F)nc1C | -0.0333 |
| Cc1ccc(-c2csc(N/N=C/c3ccco3)n2)c(C)c1 | -0.0506 |
| O=C(C1=C(O)C(=O)N(CC2CCCO2)C1c1cccnc1)c1ccco1 (stereo not given) | 0.0361 |
| N#CC1=C2SCN(Cc3ccco3)CN2C(=O)CC1c1ccc(Cl)cc1 (stereo not given) | -0.156 |
| CCc1nnc(NC(=O)C2CCCN2S(=O)(=O)c2ccccc2)s1 (stereo not given) | 0.215 |
| O=C(O)C1C2C=CC3(CN(C4CCCC4)C(=O)C13)O2 (stereo not given) | 2.75 |
| CN(C#N)c1nc(Cl)nc(Nc2cccc(Cl)c2)n1 | -0.113 |
| CCOC(=O)c1cc(-c2ccc(C)cc2)nc2nc(SC)[nH]c(=O)c12 | -0.0101 |
| O=C(c1ccco1)N1CCN(C(=O)C2CCN(S(=O)(=O)c3cccc4nsnc34)CC2)CC1 | 0.0379 |
| O=C(CSc1nnc(CCc2ccccc2)n1-c1ccc(Cl)cc1)NCc1ccccc1 | -0.443 |
| COc1ccc(OCC(=O)OC(C)CN2CCOCC2)cc1 (stereo not given) | 0.0532 |
| CSCc1nnc(NC(=O)c2ccc(S(=O)(=O)N(CC(C)C)CC(C)C)cc2)o1 | 0.161 |
| O=C(/C=N/O)Nc1ccc(F)cc1 | -0.147 |
| COCCn1c(=NC(=O)c2ccccc2[N+](=O)[O-])sc2cc(S(C)(=O)=O)ccc21 | 0.721 |
| O=C(CSc1nnc(Cc2ccccc2)o1)N1CCc2ccccc21 | -0.0762 |
| O=S(=O)(Nc1nccs1)c1ccc(Nc2nnc(-c3ccccc3)c3ccccc23)cc1 | -0.249 |

| Structure (SMILES) | z-score |
| --- | --- |
| COc1ccc(C(=O)NNC(=S)NC2CCCCC2)cc1OC | 0.0284 |
| COc1ccc(-c2cc(C(=O)OCC(=O)N3CCCC3)c3ccccc3n2)cc1 | -0.231 |
| CCn1cc(C2N3CC4(C)CN2CC(C)(C3)C4=O)c2ccccc21 (stereo not given) | -0.609 |
| N#CC1(C#N)COC23CCCCC2C1(C#N)C(=N)O3 (stereo not given) | 1.44 |
| CCCC(=O)N1CC2(C)CN(C(=O)CCC)CC(CCC)(C1)C2=O | 0.692 |
| CC1=CC(C)(C(Cl)Cl)C(C)=CC1=O (stereo not given) | -0.108 |
| CC(C)NC(=O)/C(C#N)=C/c1cccc(NC(=O)c2ccccc2Cl)c1 | -0.586 |
| CCOC(=O)c1cccc(NC(=O)CSc2nc3cccnc3n2C)c1 | -1.56 |
| CCc1nc(SCC(=O)c2cccc([N+](=O)[O-])c2)n[nH]1 | -0.282 |
| c1ccc(N2N=C(c3cccs3)CC2c2ccco2)cc1 (stereo not given) | -0.731 |
| O=[N+]([O-])c1ccc2c(c1)C=C1CCCCC1(N1CCCC1)O2 (stereo not given) | -0.299 |
| COc1ccccc1NC(=O)c1ccc(NC(=O)COC(=O)C(C)C)cc1 | 0.278 |
| Cc1nn(-c2ccc(Cl)c(Cl)c2)c(=O)c2ccccc12 | -0.111 |
| CC(=O)[C@H]1[C@H](c2cccc(Cl)c2)C(C#N)(C#N)[C@@H]2c3ccccc3C=CN21 | -0.272 |
| CCNc1cc2oc(=O)c(CN3CCOCC3)c(C)c2cc1C | -0.829 |
| O=C1CC(N2CCN(c3ccc(Cl)c(Cl)c3)CC2)C(=O)N1 (stereo not given) | -0.2 |
| CC(NC(=O)COC(=O)/C(=C/c1cccs1)c1cccs1)c1ccccc1 (stereo not given) | -0.487 |
| CCOc1ccc(NC(=O)CC2C(=O)N(C)C(=S)N2CCCc2ccccc2)cc1 (stereo not given) | 0.36 |
| COc1ccc(N2CC(C(=O)Nc3ccc(F)cc3F)CC2=O)cc1 (stereo not given) | -0.323 |
| CC1CCCCN1Cc1nc2ccccc2c(=O)[nH]1 (stereo not given) | -2.72e-06 |
| O=C(Cn1c(S(=O)(=O)Cc2ccccc2)nc2ccccc21)N1CCCCC1 | 0.0305 |
| Cc1cc(NC(=O)c2ccc(S(=O)(=O)N(C)C)cc2)n(-c2ccccn2)n1 | -0.307 |

| Structure (SMILES) | z-score |
| --- | --- |
| Cc1ccc(Cn2c(Sc3nnc(C)s3)nc3c2c(=O)[nH]c(=O)n3C)cc1 | 0.0732 |
| CCn1c2ccccc2c2cc(N)ccc21 | -0.216 |
| COc1ccccc1NC(=O)N1CCN(c2ccccc2F)CC1 | -0.567 |
| CCOC(=O)N1CCc2c(sc3nc(SC(C)C)n(N)c(=O)c23)C1 | -0.443 |
| COC(=O)c1c(NC(=S)Nc2ccc(F)cc2[N+](=O)[O-])sc2c1CCCCC2 | 1.71 |
| COc1cc(C2NCC(c3ccc(Cl)cc3Cl)c3c2[nH]c2ccccc32)cc(OC)c1OC (stereo not given) | -0.245 |
| CC(N)c1ccc(Cl)cc1Cl (stereo not given) | -0.44 |
| Cc1ccc2nc(SCc3nnc(-c4ccccc4Br)o3)[nH]c2c1 | -0.71 |
| COC(=O)c1cc(=O)n(Cc2ccco2)c(=Nc2ccc(F)c(Cl)c2)s1 | -0.152 |
| CSc1ccccc1C(=O)Nc1nccs1 | -0.134 |
| NC(=O)c1ccc(C2SCC(=O)N2Cc2ccccc2)cc1 (stereo not given) | 0.316 |
| S=C1NCCc2ccccc2C1c1ccccc1Cl (stereo not given) | 0.368 |
| CCOC(=O)c1ccc(N2C(=O)c3n[nH]c(-c4ccco4)c3C2c2ccc([N+](=O)[O-])cc2)cc1 (stereo not given) | -0.206 |
| N#Cc1ccccc1CSc1nc(O)cc(=O)[nH]1 | 0.066 |
| Cc1ccc(N=Cc2ccc(N(C)C)cc2)cc1 | 0.0838 |
| N#C/C(=C(/O)CN1CCN(c2ccccc2F)CC1)c1nc(-c2ccc(Cl)cc2)cs1 | -0.261 |
| Cc1ccc(C(=O)C2=C(O)C(=O)N(CCN3CCOCC3)C2c2ccccn2)o1 (stereo not given) | 0.226 |
| CCn1cc(CNC(=O)c2cccc([N+](=O)[O-])c2)cn1 | -0.0089 |
| CCOP(=O)(OCC)c1nc(-c2ccc(C)cc2)oc1N1CCOCC1 | 0.0269 |
| Cc1ccccc1CSc1nnc(C)n1N | 0.346 |
| CC(C)(C)CC(C)(C)Nc1c(-c2ccc(O)cc2)nc2cnccn12 | 0.017 |
| COc1ccc(NC(=O)CCCC(=O)OCC(F)(F)C(F)F)cc1 | 0.139 |
